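Step 1: Grow cells in 96-well plates. Step 2: Expose to compound for 48 hours at 5 concentrations. Step 3: Interpolate endpoints linearly; if unreached, use highest concentration. GI50 = concentration required for 50% inhibition of growth. TGI marks complete inhibition of growth.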
Tested on: NCI-H322M lung
Assay: growth of human tumour cells (NCI), 48 h

Row | SMILES | GI50 | TGI
1 | O=C1Nc2ccc(F)cc2/C1=C/c1cccc(OCc2ccccc2)c1 | 14.6 µM | 35.4 µM
2 | O=C(NCCCCC(c1ccc(F)cc1)c1ccc(F)cc1)NCCCc1cccnc1 | 13.9 µM | 29.8 µM
